Data taken from patent US10456379B2, “Imidazole-based antimicrobial agents” (priority 2014, dated 2019).

Key:
Type in all cases: cell-based
[1] = system: Human hepatocytes (HepaRG cells); assay: Human cytotoxicity assay in vitro (CellTiter-Glo), hepatocytes; parameters: key: 4: inhibiting cell viability 50% or more at concentrations of 10 μM or less; 3: causing at least 80% inhibition of viability at 25 μM; showing toxicity at 25 μM, but causing less than 20% inhibition of viability; 1: not causing a loss of viability at concentrations between 25 and 50 μM; without signs of cell viability loss at concentrations of 50 μM or higher
[2] = system: Human keratinocytes (HaCaT cells); assay: Human cytotoxicity assay in vitro (CellTiter-Glo), keratinocytes
[3] = system: Streptococcus pneumoniae (Chester, ATCC49619); assay: Broth microdilution MIC assay, Streptococcus pneumoniae; conditions: MIC class score, MIC100, broth microdilution

SMILES | cytotoxicity, cell line H (hepatocytes), class [1] | cytotoxicity, cell line K (keratinocytes), class [2] | Antibacterial activity Streptococcus pneumoniae [3]
Cc1nc(-c2ccc(-c3ccc(Cl)cc3Cl)o2)[nH]c1-c1ccccc1 [compound 1] | 2 | 2 (causing >50% inhibition of cell viability at 25 μM) | 4 (MIC of 1 μg/ml or less for preventing streptococcal growth 100% (MIC100))
Cc1[nH]c(-c2ccc(-c3ccccc3Cl)o2)nc1-c1ccccc1 [compound 3] | 3 | 1 (causing less than 50% inhibition of cell viability at 50 μM) | 4 (MIC of 1 μg/ml or less for preventing streptococcal growth 100% (MIC100))
Cc1nc(-c2ccc(-c3cccc(Cl)c3)o2)[nH]c1-c1ccccc1 [compound 4] | – | 2 (causing >50% inhibition of cell viability at 25 μM) | 4 (MIC of 1 μg/ml or less for preventing streptococcal growth 100% (MIC100))
Cc1nc(-c2ccc(-c3ccccc3OC(F)(F)F)o2)[nH]c1-c1cccc(Cl)c1 [compound 21] | 3 | 2 (causing >50% inhibition of cell viability at 25 μM) | 4 (MIC of 1 μg/ml or less for preventing streptococcal growth 100% (MIC100))
Cc1[nH]c(-c2ccc(-c3ccccc3OC(F)(F)F)o2)nc1-c1ccc(Cl)cc1 [compound 24] | 2 | 2 (causing >50% inhibition of cell viability at 25 μM) | 4 (MIC of 1 μg/ml or less for preventing streptococcal growth 100% (MIC100))
C#Cc1ccc(-c2nc(-c3ccc(-c4ccccc4C(F)(F)F)o3)[nH]c2C)cc1 [compound 27] | 1 (not causing a loss of viability at concentrations between 25 and 50 μM) | 2 (causing >50% inhibition of cell viability at 25 μM) | 4 (MIC of 1 μg/ml or less for preventing streptococcal growth 100% (MIC100))
Cc1nc(-c2ccc(-c3ccccc3OC(F)(F)F)o2)[nH]c1C [compound 85] | – | – | 4 (MIC of 1 μg/ml or less for preventing streptococcal growth 100% (MIC100))
Cc1[nH]c(-c2ccc(-c3cccc(F)c3)s2)nc1-c1ccccc1 [compound 117] | – | – | 1 (MIC100 of 11-20 μg/ml or an MIC50 of <10 μg/ml)
Cc1[nH]c(-c2ccc(-c3ccc(Br)cc3)s2)nc1-c1ccccc1 [compound 118] | – | – | 1 (MIC100 of 11-20 μg/ml or an MIC50 of <10 μg/ml)
Cc1nc(-c2ccc(-c3cc4ccccc4o3)o2)[nH]c1-c1ccccc1 [compound 140] | – | – | 4 (MIC of 1 μg/ml or less for preventing streptococcal growth 100% (MIC100))
Cc1nc(-c2ccc(-c3ccc(N4CCN(C)CC4)cc3)o2)[nH]c1-c1ccccc1 [compound 141] | – | – | 1 (MIC100 of 11-20 μg/ml or an MIC50 of <10 μg/ml)
Cc1nc(-c2ccc(-c3ccc(F)cc3F)o2)[nH]c1-c1ccccc1 [compound 147] | – | – | 4 (MIC of 1 μg/ml or less for preventing streptococcal growth 100% (MIC100))
Cc1nc(-c2ccc(-c3ccccc3O)o2)[nH]c1-c1ccccc1 [compound 149] | – | – | 1 (MIC100 of 11-20 μg/ml or an MIC50 of <10 μg/ml)
Cc1nc(-c2ccc(-c3ccc4c(c3)CC(=O)N4)o2)[nH]c1-c1ccccc1 [compound 151] | – | – | 1 (MIC100 of 11-20 μg/ml or an MIC50 of <10 μg/ml)
Cc1nc(-c2ccc(-c3ccc4cn[nH]c4c3)o2)[nH]c1-c1ccccc1 [compound 156] | – | – | 1 (MIC100 of 11-20 μg/ml or an MIC50 of <10 μg/ml)
Cc1[nH]c(-c2cnn(-c3ccc(F)cc3)c2)nc1-c1ccccc1 [compound 166] | – | – | 1 (MIC100 of 11-20 μg/ml or an MIC50 of <10 μg/ml)
Cc1[nH]c(-c2cnn(-c3ccccc3)c2)nc1-c1ccccc1 [compound 167] | – | – | 1 (MIC100 of 11-20 μg/ml or an MIC50 of <10 μg/ml)
